In all, about 190,000 compounds went through this assay and about 520 (0.27%) were called active. Inconclusive means that the source gave no clear call. Such entries were picked first, then a sample of the others.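 Rule for the calls: active = GTP binding activity at least 20 points away from the 100% control level, either lower or higher; inconclusive = compound flagged as likely green fluorescent, judged across all proteins; inactive = the rest.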
target: Ras-related C3 botulinum toxin substrate 1 (Homo sapiens) (UniProt P63000); assay: wildtype Rac1 GTP binding modulators, primary screen, biochemical, GST-Rac1 beads, flow cytometry, multiplex (AID 757); conditions: fluorescent GTP binding, at 10 µM, actives lie on both sides, 0 = cold GTP competed, 100 = untreated

| SMILES | GTP binding activity (% of control) |
| --- | --- |
| CCn1nc(NC(=O)c2ccncc2)c2cc3cccc(C)c3nc21 | inconclusive: 104% |
| CCn1nc(C(=O)OCC(=O)c2cc(C)n(Cc3cccs3)c2C)c2ccccc2c1=O | active: 78% |
| COc1cc(/C=C2\SC(=Nc3ccc(O)cc3)NC2=O)cc(OC)c1O | active: 72% |
| CCOc1cccc(CNCCSc2nnnn2C)c1 | inactive: 95% |
| Cc1cc(C)nc(/N=C2\NC(=O)CC(C(=O)O)N2c2ccc(Cl)cc2Cl)n1 (stereo not given) | inactive: 96% |
| COc1ccc(OC)c(C2=NOC(C(=O)NCc3cccs3)C2)c1 (stereo not given) | inactive: 101% |
| CS(=O)(=O)N(CC(=O)Nc1c(F)cccc1F)c1ccc(C23CC4CC(CC(C4)C2)C3)cc1 | inconclusive: 108% |
| Cc1ccc(C(=O)N2CCOCC2)cc1Cl | inconclusive: 89% |
| N=c1n(CCN2CCCC2)c2ccccc2n1CC(O)c1ccco1 (stereo not given) | inconclusive: 105% |
| Cc1ccc(-n2nnnc2CCl)cc1 | inactive: 100% |
| CCOCCCNC(=S)N1CCC(C(=O)c2ccc3c(c2)OCCO3)CC1 | inactive: 101% |
| COc1ccc(OC)c(CN2CCN(Cc3cccc4ccccc34)CC2)c1 | inactive: 97% |
| Cc1ccc(S(=O)(=O)N(C)CC(=O)N2CCN(C(=O)c3ccco3)CC2)cc1 | inconclusive: 104% |
| CCn1c(C)nc2cc(C(=O)NNC(=O)c3ccc(Cl)nc3)ccc21 | inconclusive: 94% |
| CC(C)NC(=O)COC(=O)c1ccccc1C(=O)c1ccccc1 | inconclusive: 97% |
| COc1ccc(S(=O)(=O)Nc2cc3c(cc2C(C)=O)OCO3)cc1 | inactive: 97% |
| Cc1nnc2ccc(-c3cccc(NC(=O)c4ccco4)c3)nn12 | active: 56% |
| CCOC(=O)N1CCC(N2Cc3cccc(C(=O)Nc4ccc(F)cc4)c3C2=O)CC1 | inconclusive: 85% |
| Cc1nn(-c2ccc(Cl)cc2Cl)c(C)c1C(=O)O | inconclusive: 103% |
| Cc1nc2ccc(Cl)cc2c(-c2ccccc2Cl)c1CC(=O)O | inactive: 87% |
| CC(=O)Nc1ccnc(-c2cccnc2)n1 | inactive: 96% |
| CNc1c([N+](=O)[O-])cnn1-c1cccc(Cl)n1 | inactive: 95% |
| Nc1nc(SCC(=O)Nc2ccccc2)nc2nc3c(cc12)CCCC3 | inconclusive: 88% |
| CC(=O)c1cccc(NC(=O)C(=O)c2cn(CC(=O)N3CCCCC3)c3ccccc23)c1 | inconclusive: 97% |

| SMILES | GTP binding activity (% of control) |
| --- | --- |
| CN(C(=O)Cc1c(C(=O)O)n(C)c2ccccc12)c1ccc(F)cc1 | inactive: 100% |
| Cc1ccc(N(CC(O)CN2CCCC2)S(=O)(=O)c2ccc(C)cc2)cc1 (stereo not given) | inconclusive: 101% |
| CC1CCN(CCCCOc2ccc([N+](=O)[O-])cc2)CC1 | inconclusive: 95% |
| Nc1nnc(/C=C/c2ccccc2)s1 | inactive: 100% |
| CC(=O)Nc1ccc(S(=O)(=O)NCCSCc2c(Cl)cccc2Cl)cc1 | inconclusive: 100% |
| O=C(CSc1ccccc1F)NC1CCS(=O)(=O)C1 (stereo not given) | inactive: 96% |
| Oc1ccc(N=Cc2cc(Br)c(N3CCOCC3)o2)cc1 | inactive: 103% |
| C/C(=N\NC(=O)c1c[nH]c2ccccc12)c1ccc(C)o1 | active: 79% |
| CCCCCC(=O)N1CC2(C)CN(C(=O)CCCCC)CC(C)(C1)C2=O | inconclusive: 105% |
| Nc1ccc(-c2nc3ccc(N)cc3[nH]2)cc1 | inconclusive: 93% |
| O=C(COc1ccccc1C(=O)Nc1ccccc1)c1ccc(Br)cc1 | inconclusive: 89% |
| Cc1ccc(NC(=O)C2CCCCC2C(=O)O)cc1Cl (stereo not given) | inconclusive: 83% |
| O=C(CCc1ccccc1)Nc1nc2nc(-c3ccccc3)cc(=O)n2[nH]1 | inconclusive: 96% |
| COc1ccc(-c2cc(C#N)nc(N3CCNCC3)n2)cc1 | active: 131% [activator] |
| Cc1cccc(NC(=O)CCc2ccccc2)c1 | inconclusive: 107% |
| Cc1ccccc1S(=O)(=O)NC1OC(=O)C(Cl)=C1Cl (stereo not given) | inconclusive: 93% |
| CCCn1cc(CN2CCCC(CNC(=O)c3ccc(F)cc3)C2)c(C)n1 (stereo not given) | inconclusive: 126% |
| CC(=O)N1CCn2c3ccc(C)cc3c3cccc1c32 | inactive: 101% |
| COc1cc(/C=N/NC(=O)CCc2c(C)n[nH]c2C)ccc1O | inconclusive: 103% |
| CCc1ccc(NC(=O)CSc2nnc(SCC(=O)Nc3ccc(CC)cc3)n2N)cc1 | inconclusive: 107% |
| O=C(COc1ccccc1)N/N=C/c1ccc2c(c1)OCO2 | inactive: 91% |
| Cn1c(=O)c2c(ncn2CC(=O)OCC(=O)Nc2ccccc2)n(C)c1=O | inactive: 92% |
| O=C(Nc1cccn(Cc2c(Cl)cccc2Cl)c1=O)c1c(Cl)cccc1Cl | inconclusive: 104% |
| CCOc1cc(/C=C/C(=O)OCC(=O)NC2CCS(=O)(=O)C2)ccc1OCc1ccccc1 (stereo not given) | inactive: 95% |

| SMILES | GTP binding activity (% of control) |
| --- | --- |
| COc1cccc(C(=O)Nc2cccc3c2ccc2cccn23)c1 | inconclusive: 92% |
| Brc1c(OCCOCCn2cncn2)ccc2ccccc12 | inconclusive: 96% |
| CC(C)C(C)(C#N)NC(=O)CSc1nncn1-c1ccccc1 (stereo not given) | inactive: 104% |
| COc1ccc(-c2nnc(SCC(=O)Nc3nncs3)o2)cc1 | inconclusive: 91% |
| CCOC(=O)N1CCN(CC(=O)Nc2ccc(C)c(Br)c2)CC1 | inactive: 96% |
| O=C(O)CCC(=O)Nc1ccc(/C=C/C(=O)C2CC2)cc1 | inactive: 98% |
| CCCc1cc(N2CCN(C(=O)c3ccco3)CC2)n2c(nc3ccccc32)c1C#N | inactive: 84% |
| Cc1cc(Nc2n[nH]c(N)c2C#N)ccc1F | inactive: 95% |
| c1ccc(C2=Nn3c(nnc3-c3ccco3)SC2)cc1 | inconclusive: 79% |
| CCc1ccc(C(=O)/C=C/Nc2ccc(S(=O)(=O)Nc3onc(C)c3C)cc2)cc1 | inconclusive: 93% |
| COc1ccccc1N1CCN(C(=O)CN(c2cc(C)cc(C)c2)S(C)(=O)=O)CC1 | inactive: 101% |
| CCOc1ccccc1N(CC(=O)N1CCCCCC1)S(C)(=O)=O | inconclusive: 109% |
| CCC1SC2=NC(C)=C(C(=O)OC)C(c3ccc(C)cc3)N2C1=O (stereo not given) | inconclusive: 89% |
| O=C(Nc1cccc(CCc2ccccn2)c1)c1ccc(Cl)cc1 | inactive: 97% |
| Cc1ccc(S(=O)(=O)Nc2cccnc2)cc1 | inconclusive: 100% |
| O=C(CSc1nc2ccccc2c(=O)n1NC(=O)c1ccccc1)c1ccccc1 | inconclusive: 99% |
| Cc1cc(Cl)ccc1NC(=S)NCCN1CCOCC1 | inconclusive: 101% |
| CCOc1ccccc1C1C(C#N)=C(N)Oc2n[nH]c(CC)c21 (stereo not given) | inconclusive: 108% |
| COc1ccc(CCNC(=O)[C@@H](NC(=O)c2ccccc2F)C(C)C)cc1OC | inactive: 97% |
| CCOC(=O)CSc1n[nH]c(NC(=O)c2cccc(C(F)(F)F)c2)n1 | inactive: 99% |
| Cc1ccc(C(=O)N/N=C(\CC(C)C)c2ccccc2)cc1 | inconclusive: 122% |
| COc1cc(C(=O)Nc2ccc3c(c2)CCN3C(C)=O)cc(OC)c1OC | inconclusive: 139% |
| COC(=O)c1cn(C(=O)/C=C/c2ccc(OC)c(OC)c2)c2ccccc12 | inconclusive: 92% |
| CNS(=O)(=O)c1ccc(NC(=O)C2CC(=O)N(c3ccc(Cl)cc3)C2)cc1 (stereo not given) | inconclusive: 91% |

| SMILES | GTP binding activity (% of control) |
| --- | --- |
| O=C(CCc1nnc(CCCc2ccccc2)o1)NC(C1CC1)C1CC1 | inconclusive: 97% |
| O=C(Cc1c[nH]c2ccccc12)NC1(C(=O)NC2CCCC2)CCCCC1 | inactive: 100% |
| COc1ccc(-c2nn(-c3ccccc3)cc2/C=C/C(=O)N2CCN(c3ccccn3)CC2)cc1 | inactive: 96% |
| CN(C)CCCNCCCCNC(=O)/C=N/O | inconclusive: 108% |
| O=C(Cc1ccccc1)NNC(=O)C1CCCC1 | inconclusive: 94% |
| O=C(Cn1cnc2c(nnn2Cc2ccc(F)cc2)c1=O)OCc1ccccc1 | inconclusive: 105% |
| CCn1c(CNC(=O)c2ccccc2F)nnc1SCC(=O)NC1CCCCC1C (stereo not given) | inactive: 104% |
| Cn1nc(C(=O)NCCOc2ccccc2)c2ccccc2c1=O | inactive: 100% |
| COc1ccc(OC)c(C2CC(=O)Nc3n[nH]c(-c4ccccc4)c32)c1 (stereo not given) | inconclusive: 100% |
| CCCn1c(=N)n(CC(O)COc2cccc(C)c2)c2ccccc21 (stereo not given) | inconclusive: 101% |
| O=C(O)CC/C(=N/Nc1ncc(C(F)(F)F)cc1Cl)C(=O)O | inactive: 102% |
| COc1cc(/C=N/Nc2nc(C)nc3c2cnn3-c2ccccc2)ccc1O | active: 70% |
| COc1ccccc1C(=O)N=Nc1c(O)[nH]c2ccc([N+](=O)[O-])cc12 | active: 45% |
| COc1cccc(NC(=O)c2ccc(C(=O)c3ccccc3)o2)c1 | inactive: 97% |
| O=C(NC1CCN(C(=S)NCc2ccco2)CC1)c1ccc(F)cc1 | inconclusive: 111% |
| O=C(CSc1ncnc2c1oc1ccccc12)NCc1ccc(F)cc1 | inactive: 95% |
| Cn1c(=O)c2c(nc(OCc3cccnc3)n2Cc2c(F)cccc2Cl)n(C)c1=O | inactive: 101% |
| O=C(Nc1ccc(Cl)cc1)c1csc(-c2ccncc2)n1 | inconclusive: 87% |
| COc1ccc(-c2csc(NC(=O)c3ccccc3NS(=O)(=O)c3ccc(F)c(F)c3)n2)cc1 | inconclusive: 87% |
| O=C(Nc1ccc(F)cc1)N1CCN(c2ccc3nnc(-c4ccc(F)cc4)n3n2)CC1 | inconclusive: 92% |
| CS(=O)(=O)Nc1ccc(Br)cc1C(=O)c1ccccc1 | inactive: 103% |
| Cc1ccc(OCCSc2ncnc3sc(C)c(C)c23)cc1C | inconclusive: 83% |
| COc1cc(NC(=O)c2cccs2)c(OC)cc1NC(=O)CCC(=O)Nc1cccc2ncccc12 | active: 67% |

Reference: PubChem BioAssay AID757 (NMMLSC, 2007)
